In PubChem BioAssay (Tox21):
Values joined by “and” are separate entries in the source; they are usually repeats but may differ in a detail not shown here. Equal values may be shown once. This list was built around the results that the source calls inconclusive (neither active nor inactive); the mix of calls is not that of the screen. For part of these data: Potencies of inconclusive entries are doubtful fits and often do not repeat. Where a structure was tested more than once in an assay, its records may differ in their call. Active and inactive are the calls of the source. Calls follow the shape of the dose curve; as a rule, active = well fitted curve in the direction sought with a large enough effect in the repeat runs; inconclusive = weak or mixed curves; inactive = no such curve, though single readings can be large; an effect the other way counts as inactive or inconclusive.

What was measured:
[1] = Caspase-3/7 induction in HepG2 cells by small molecules, qHTS cell viability counter screen (AID 1346981); also: nearly all actives have a fitted effect of over 30% in size; also: potency is read from the fitted curve at half-maximal effect
Outline: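 In this quantitative HTS counter screen, compounds delivered in DMSO were left on unmodified HepG2 cells for 16 hr at 37 C. Viability was then determined fluorometrically with CellTiter-Fluor, in parallel with caspase-3/7 induction in the same wells.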

[2] = biological target: Nuclear receptor subfamily 1 group I member 2 (Homo sapiens) (UniProt O75469); assay: Human pregnane X receptor (PXR) small molecule agonists, qHTS assay (AID 1346982); also: nearly all actives have a fitted effect of over 35% in size; also: potency is read from the fitted curve at half-maximal effect
Outline: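 Reporter HepG2 cells expressing PXR-Luc are cultured in charcoal-stripped FBS (5%), treated with compounds for 24 hr at 37 C, and assayed by ONE-Glo luminescence after 30 min at room temperature.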

[3] = biological target: Cytochrome P450 2C19 (Homo sapiens) (UniProt P33261); assay: Cytochrome P450 Family 2 Subfamily C Member 19 (CYP2C19) small molecule antagonists: luciferase reporter qHTS assay (AID 1671197); also: potency is read from the fitted curve at half-maximal effect; nearly all actives have a fitted effect of over 65% in size
Outline: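 Luminescent readout of CYP2C19 activity: luciferin product detected 20 min after adding detection reagent. Before that, compound and enzyme-substrate mix preincubated 10 min at room temperature; NADPH-regenerating system started a 1 h, 37C reaction. Ketoconazole as positive control.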

[4] = biological target: Cytochrome P450 1A2 (Homo sapiens) (UniProt P05177); assay: Cytochrome P450 Family 1 Subfamily A Member 2 (CYP1A2) small molecule antagonists: luciferase reporter qHTS assay (AID 1671199); also: nearly all actives have a fitted effect of over 50% in size; also: potency is read from the fitted curve at half-maximal effect
Outline: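 Steps: enzyme-substrate mix dispensed; test compounds and furafylline control pinned in; 10 min room temperature; NADPH regeneration solution added, 1 h; reaction stopped with luciferin detection reagent; luminescence read after 20 min.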

[5] = biological target: Voltage-gated inwardly rectifying potassium channel KCNH2 (Homo sapiens) (UniProt Q12809); assay: Human Ether-a-go-go-Related Gene (hERG) channel small molecule antagonists: fluorescence cell-based qHTS assay (AID 1671200); also: nearly all actives have a fitted effect of over 50% in size; also: potency is read from the fitted curve at half-maximal effect
Outline: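 hERG-U2OS cells plated overnight at 37 C, loaded with FluxOR II dye 1 h at RT in dark; after 10 min, thallium stimulus added. Fluorescence (480/540 nm) read kinetically for 2 min at 1 s intervals.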

[6] = biological target: Cytochrome P450 3A4 (Homo sapiens) (UniProt P08684); assay: Cytochrome P450 Family 3 Subfamily A Member 4 (CYP3A4) small molecule antagonists: luciferase reporter qHTS assay (AID 1671201); also: nearly all actives have a fitted effect of over 50% in size; also: potency is read from the fitted curve at half-maximal effect
Outline: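 P450-Glo CYP3A4 luminescent assay: compounds preincubated 10 min at room temperature with enzyme and proluciferin substrate, NADPH regeneration added, 1 h room-temperature reaction, stopped with luciferin detection reagent; luminescence read after 20 min. Ketoconazole positive control.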

[7] = Caspase-3/7 induction in CHO-K1 cells by small molecules, qHTS cell viability counter screen (AID 1346979); also: nearly all actives have a fitted effect of over 35% in size; also: potency is read from the fitted curve at half-maximal effect
Outline: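 Wild-type CHO-K1 cells (1,500/well) treated with compound after 5 h plating; after 16 h at 37C, viability read as CellTiter-Fluor fluorescence following 1 h reagent incubation, in the same wells as the caspase read.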

[8] = biological target: Cytochrome P450 2D6 (Homo sapiens) (UniProt P10635); assay: Cytochrome P450 Family 2 Subfamily D Member 6 (CYP2D6) small molecule antagonists: luciferase reporter qHTS assay (AID 1671196); also: nearly all actives have a fitted effect of over 50% in size; also: potency is read from the fitted curve at half-maximal effect
Outline: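 Test chemicals meet CYP2D6 plus proluciferin substrate (10 min, RT); NADPH regenerating solution then drives turnover for 1 h. Detection reagent halts the reaction; luminescence measured after 20 min.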

[9] = biological target: Cytochrome P450 2C9 (Homo sapiens) (UniProt P11712); assay: Cytochrome P450 Family 2 Subfamily C Member 9 (CYP2C9) small molecule antagonists: luciferase reporter qHTS assay (AID 1671198)
Outline: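 Enzyme-substrate mix preincubated with compound 10 min at room temperature; reaction started with NADPH regeneration solution, 1 h 37C. Luminescent luciferin product read after 20 min detection reagent.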

[10] = biological target: Nuclear receptor subfamily 1 group I member 2 (Rattus norvegicus) (UniProt Q9R1A7); assay: Rat pregnane X receptor (rPXR) activation by small molecules, qHTS assay (AID 1346983); details: rPXR luciferase reporter cells, One-Glo luminescence, 24 h; max activation: stronger effect = higher value; also: potency is read from the fitted curve at half-maximal effect; nearly all actives have a fitted effect of over 20% in size
Outline: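 Luminescent readout (One-Glo luciferase, 30 min room temperature) followed 24 hr compound treatment at 37 C of rPXR cells plated 2,000 per well and preincubated 5hr; qHTS format with compounds delivered in DMSO.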

[11] = biological target: Nuclear receptor subfamily 1 group I member 2 (Homo sapiens) (UniProt O75469); assay: CYP3A4 induction through human pregnane X receptor (PXR) by small molecules, qHTS assay (AID 1346984); also: potency is read from the fitted curve at half-maximal effect; nearly all actives have a fitted effect of over 40% in size
Outline: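 Induction measured in HepG2-based DPX-2 cells co-expressing human PXR and a CYP3A4 promoter-driven luciferase. After a 24-hour compound exposure, cells received CYP3A4 luciferin substrate at 3uM final for 3 hours, and light output was then recorded.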

[12] = Caspase-3/7 induction in CHO-K1 cells by small molecules, qHTS assay (AID 1346980); also: nearly all actives have a fitted effect of over 15% in size
Outline: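 Luminescent Caspase-Glo 3/7 read (30min, room temperature) quantified apoptosis induction. Cells were wild-type CHO-K1, treated with compound for 17hr at 37 C and 5% CO2.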

[13] = biological target: Nuclear receptor subfamily 1 group I member 2 (Homo sapiens) (UniProt O75469); assay: Human pregnane X receptor (PXR) activation by small molecules, qHTS assay (AID 1346985); also: nearly all actives have a fitted effect of over 40% in size
Outline: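 DPX-2 cells (HepG2 co-transfected with a PXR response element and a CYP3A4-promoter luciferase construct) were seeded at 2,000 per well, rested 5 hr at 37C, then exposed to DMSO-dissolved compounds for 24 hr. Activation was read as luciferase luminescence.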
Tags tell the direction and shape of the fitted curve.

UniProt P05177, sequence (P05177 whole entry, looked up): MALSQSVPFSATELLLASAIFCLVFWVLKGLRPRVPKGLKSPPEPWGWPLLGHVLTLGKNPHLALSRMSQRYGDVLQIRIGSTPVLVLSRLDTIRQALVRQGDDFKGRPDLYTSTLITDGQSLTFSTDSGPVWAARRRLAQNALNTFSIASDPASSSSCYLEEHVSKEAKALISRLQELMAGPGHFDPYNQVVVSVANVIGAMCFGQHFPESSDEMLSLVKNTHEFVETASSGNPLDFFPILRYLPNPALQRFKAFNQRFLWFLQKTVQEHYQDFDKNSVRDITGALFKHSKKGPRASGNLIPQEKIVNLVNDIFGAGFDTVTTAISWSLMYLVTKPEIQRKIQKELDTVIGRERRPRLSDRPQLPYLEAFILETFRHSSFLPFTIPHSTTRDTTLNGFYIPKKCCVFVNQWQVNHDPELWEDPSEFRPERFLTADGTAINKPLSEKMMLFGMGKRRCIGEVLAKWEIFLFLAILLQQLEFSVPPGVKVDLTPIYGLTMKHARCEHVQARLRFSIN
UniProt Q12809, sequence (Q12809 whole entry, looked up): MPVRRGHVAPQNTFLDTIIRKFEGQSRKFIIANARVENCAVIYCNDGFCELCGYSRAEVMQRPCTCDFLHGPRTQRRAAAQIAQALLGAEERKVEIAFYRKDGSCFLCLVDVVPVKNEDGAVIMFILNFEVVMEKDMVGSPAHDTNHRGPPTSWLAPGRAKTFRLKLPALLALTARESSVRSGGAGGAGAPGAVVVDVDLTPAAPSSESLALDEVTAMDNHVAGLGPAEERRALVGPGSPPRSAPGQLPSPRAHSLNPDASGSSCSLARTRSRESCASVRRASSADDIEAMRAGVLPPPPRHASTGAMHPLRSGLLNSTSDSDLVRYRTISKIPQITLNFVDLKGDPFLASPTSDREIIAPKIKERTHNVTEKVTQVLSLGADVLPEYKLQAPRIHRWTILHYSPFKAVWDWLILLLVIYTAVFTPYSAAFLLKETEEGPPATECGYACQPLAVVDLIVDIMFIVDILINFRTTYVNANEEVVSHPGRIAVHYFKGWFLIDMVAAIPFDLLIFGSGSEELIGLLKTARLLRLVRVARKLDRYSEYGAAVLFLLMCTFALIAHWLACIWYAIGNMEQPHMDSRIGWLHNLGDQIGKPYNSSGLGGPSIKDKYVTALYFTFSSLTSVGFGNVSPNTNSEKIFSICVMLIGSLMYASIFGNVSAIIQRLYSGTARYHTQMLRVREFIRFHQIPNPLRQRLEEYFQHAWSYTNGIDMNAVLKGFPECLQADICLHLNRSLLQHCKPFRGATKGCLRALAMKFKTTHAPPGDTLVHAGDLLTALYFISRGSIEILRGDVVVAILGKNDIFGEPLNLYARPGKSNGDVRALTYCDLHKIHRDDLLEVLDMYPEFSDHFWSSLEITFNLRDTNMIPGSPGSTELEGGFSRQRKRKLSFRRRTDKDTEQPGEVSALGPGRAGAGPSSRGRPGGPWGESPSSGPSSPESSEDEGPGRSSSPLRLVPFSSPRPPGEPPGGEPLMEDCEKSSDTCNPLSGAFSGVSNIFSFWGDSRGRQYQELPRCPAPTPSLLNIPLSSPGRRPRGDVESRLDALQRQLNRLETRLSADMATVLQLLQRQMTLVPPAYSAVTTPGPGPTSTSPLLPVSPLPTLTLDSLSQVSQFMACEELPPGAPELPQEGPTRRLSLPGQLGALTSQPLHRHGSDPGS
UniProt P10635, sequence (P10635 whole entry, looked up): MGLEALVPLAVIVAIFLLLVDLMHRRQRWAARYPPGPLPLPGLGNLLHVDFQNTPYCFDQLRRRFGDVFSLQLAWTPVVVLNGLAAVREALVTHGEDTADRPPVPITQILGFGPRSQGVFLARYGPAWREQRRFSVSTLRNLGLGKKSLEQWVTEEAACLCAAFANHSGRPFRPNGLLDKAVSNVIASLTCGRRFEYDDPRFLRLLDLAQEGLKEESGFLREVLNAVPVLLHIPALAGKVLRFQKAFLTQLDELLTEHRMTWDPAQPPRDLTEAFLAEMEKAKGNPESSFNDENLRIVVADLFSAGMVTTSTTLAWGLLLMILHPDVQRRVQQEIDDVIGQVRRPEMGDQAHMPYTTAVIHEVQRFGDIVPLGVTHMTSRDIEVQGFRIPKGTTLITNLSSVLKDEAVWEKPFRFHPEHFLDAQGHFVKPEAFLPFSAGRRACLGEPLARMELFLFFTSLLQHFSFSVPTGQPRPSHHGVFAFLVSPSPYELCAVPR
UniProt P08684, sequence (P08684 whole entry, looked up): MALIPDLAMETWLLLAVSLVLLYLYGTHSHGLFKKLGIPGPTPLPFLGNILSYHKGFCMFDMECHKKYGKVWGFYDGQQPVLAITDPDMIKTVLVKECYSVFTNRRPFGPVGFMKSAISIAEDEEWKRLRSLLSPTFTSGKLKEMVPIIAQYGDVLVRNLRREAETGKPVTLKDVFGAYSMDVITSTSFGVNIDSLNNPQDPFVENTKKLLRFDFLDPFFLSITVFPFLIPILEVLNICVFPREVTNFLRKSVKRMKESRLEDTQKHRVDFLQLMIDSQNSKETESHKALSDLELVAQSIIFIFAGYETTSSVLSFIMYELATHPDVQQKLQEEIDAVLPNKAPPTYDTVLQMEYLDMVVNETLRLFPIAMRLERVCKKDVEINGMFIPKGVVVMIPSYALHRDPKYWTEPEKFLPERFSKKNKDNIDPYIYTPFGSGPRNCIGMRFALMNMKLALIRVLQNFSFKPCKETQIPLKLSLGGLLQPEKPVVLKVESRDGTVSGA
UniProt O75469, sequence (O75469 whole entry, looked up): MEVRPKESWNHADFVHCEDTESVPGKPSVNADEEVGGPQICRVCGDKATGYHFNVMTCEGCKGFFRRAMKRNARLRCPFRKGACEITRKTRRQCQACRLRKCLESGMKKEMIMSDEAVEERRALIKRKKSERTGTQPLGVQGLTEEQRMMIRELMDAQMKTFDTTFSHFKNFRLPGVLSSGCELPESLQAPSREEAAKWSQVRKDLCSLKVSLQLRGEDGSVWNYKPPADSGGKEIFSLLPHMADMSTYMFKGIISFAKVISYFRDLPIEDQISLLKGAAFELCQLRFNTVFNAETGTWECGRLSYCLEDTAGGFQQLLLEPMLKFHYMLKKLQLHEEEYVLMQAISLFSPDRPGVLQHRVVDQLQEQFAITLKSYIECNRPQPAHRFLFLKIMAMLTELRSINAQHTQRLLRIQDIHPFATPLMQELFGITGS
UniProt Q9R1A7, sequence (Q9R1A7 whole entry, looked up): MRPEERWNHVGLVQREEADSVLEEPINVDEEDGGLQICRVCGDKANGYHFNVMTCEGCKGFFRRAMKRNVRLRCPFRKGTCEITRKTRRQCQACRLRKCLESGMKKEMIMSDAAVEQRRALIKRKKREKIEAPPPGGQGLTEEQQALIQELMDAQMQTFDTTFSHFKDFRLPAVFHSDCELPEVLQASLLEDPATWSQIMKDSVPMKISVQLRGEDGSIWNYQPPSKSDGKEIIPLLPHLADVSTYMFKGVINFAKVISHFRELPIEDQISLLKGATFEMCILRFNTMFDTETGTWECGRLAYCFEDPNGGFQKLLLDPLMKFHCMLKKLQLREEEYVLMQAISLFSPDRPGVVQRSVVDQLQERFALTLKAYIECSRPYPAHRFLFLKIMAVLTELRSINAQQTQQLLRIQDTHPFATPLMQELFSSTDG
UniProt P33261, sequence (P33261 whole entry, looked up): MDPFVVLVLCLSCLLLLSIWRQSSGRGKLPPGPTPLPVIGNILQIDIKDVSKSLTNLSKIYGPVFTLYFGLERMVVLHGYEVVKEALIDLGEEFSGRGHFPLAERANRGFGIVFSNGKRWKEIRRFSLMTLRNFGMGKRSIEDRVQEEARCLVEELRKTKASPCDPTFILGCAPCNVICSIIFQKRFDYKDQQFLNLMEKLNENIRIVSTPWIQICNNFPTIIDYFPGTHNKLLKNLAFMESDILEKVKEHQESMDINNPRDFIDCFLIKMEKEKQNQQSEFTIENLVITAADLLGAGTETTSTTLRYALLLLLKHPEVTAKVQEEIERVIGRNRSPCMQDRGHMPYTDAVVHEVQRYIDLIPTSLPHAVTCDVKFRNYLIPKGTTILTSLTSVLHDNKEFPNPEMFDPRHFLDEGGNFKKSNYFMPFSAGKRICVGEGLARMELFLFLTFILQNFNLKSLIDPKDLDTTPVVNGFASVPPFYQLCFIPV
UniProt P11712, sequence (P11712 whole entry, looked up): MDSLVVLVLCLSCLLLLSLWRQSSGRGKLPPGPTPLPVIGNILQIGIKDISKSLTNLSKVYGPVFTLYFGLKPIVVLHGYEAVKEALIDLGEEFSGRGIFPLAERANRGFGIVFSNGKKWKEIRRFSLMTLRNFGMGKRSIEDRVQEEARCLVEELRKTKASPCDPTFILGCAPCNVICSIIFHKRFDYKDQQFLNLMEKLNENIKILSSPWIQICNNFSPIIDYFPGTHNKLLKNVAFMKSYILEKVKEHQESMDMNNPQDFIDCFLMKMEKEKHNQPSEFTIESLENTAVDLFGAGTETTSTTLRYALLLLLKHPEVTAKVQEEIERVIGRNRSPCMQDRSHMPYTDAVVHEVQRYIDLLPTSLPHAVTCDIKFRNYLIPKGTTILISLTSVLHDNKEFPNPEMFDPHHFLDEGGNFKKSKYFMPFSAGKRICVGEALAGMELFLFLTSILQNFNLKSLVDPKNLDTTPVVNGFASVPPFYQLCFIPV

In the case of `C=C[Si]1(C)O[Si](C)(C=C)O[Si](C)(C=C)O[Si](C)(C=C)O1` (stereo unspecified), the Potency [1] is reported as inconclusive: 27.3 µM [cytotoxic, single point], the Potency [2] is reported as inconclusive: 27.3 µM [activator, single point] and the Potency [3] is reported as active: 63.3 µM. For the same compound, the Potency [4] was inconclusive: 35.6 µM [inhibitor, partial curve], the Potency [5] was “inactive” and the Potency [6] was inconclusive: 79.6 µM [inhibitor, single point].
With `CCOC(/C=C(\C)CCC=C(C)C)OCC` the Potency [7] was “inactive” and the Potency [4] was “inactive”.
For `c1ccc(Oc2ccccc2)cc1`, the Potency [1] was “inactive”, the Potency [2] was “inactive” and the Potency [8] was inconclusive: 73.1 µM [inhibitor, partial curve] and inconclusive: 35.6 µM [inhibitor, partial curve]. For the same compound, the Potency [9] was inconclusive: 92.1 µM [inhibitor, partial curve, poor fit] and the Potency [4] was inconclusive: 65.2 µM [inhibitor, partial curve].
With `CO[Si](CCCCl)(OC)OC` the Potency [7] was “inactive” and the Potency [4] was “inactive”.
In the case of `CCCOC(C(=O)OC1CCN(C)CC1)(c1ccccc1)c1ccccc1`, the Potency [1] is reported as inconclusive: 33.5 µM [cytotoxic, single point], the Potency [2] is reported as inconclusive: 10.6 µM [activator, full curve, poor fit] and the Potency [10] is reported as active: 15.8 µM. For the same compound, the Potency [11] was active: 28.2 µM and the Potency [5] was inconclusive: 19 µM [inhibitor, partial curve].
For `CCN(CC)CC(=O)Nc1c(C)cccc1C`, the Potency [1] was “inactive”.
With `O=C1OC(=O)c2ccccc21` the Potency [7] was “inactive” and the Potency [5] was “inactive”.
For `N#Cc1ccc(C/C(=N/NC(=O)Nc2ccc(OC(F)(F)F)cc2)c2cccc(C(F)(F)F)c2)cc1`, the Potency [7] was inconclusive: 68.6 µM [cytotoxic, single point], the Potency [5] was inconclusive: 19.5 µM [inhibitor, partial curve] and the Potency [6] was inconclusive: 71 µM [inhibitor, partial curve].
In the case of `COc1c2occc2cc2ccc(=O)oc12`, the Potency [1] is reported as inconclusive: 24.3 µM [rising, single point] and the Potency [2] is reported as inconclusive: 29.8 µM [activator].
For `CC(COCCO)OCCO` (stereo unspecified), the Potency [1] was “inactive”, the Potency [2] was inconclusive: 78.7 µM [activator, partial curve, poor fit] and the Potency [8] was active: 25.8 µM.
For `N#CCCOCCC#N`, the Potency [1] was “inactive”.
With `CC(C)=CCC/C(C)=C/CC/C(C)=C/CO` the Potency [7] was inconclusive: 68.6 µM [cytotoxic, single point] and the Potency [5] was inconclusive: 49 µM [inhibitor, partial curve].
With `CC(=O)O[Si](C)(OC(C)=O)OC(C)=O` the Potency [1] was “inactive”.
For `CCOc1ccc2c(c1)C(C)CC(C)(C)N2` (stereo unspecified), the Potency [1] was “inactive”.
With `N=C(N)c1ccc(OCCCOc2ccc(C(=N)N)cc2)cc1` the Potency [1] was “inactive”.
For `CC1(C)C(=O)NC(=O)N1CO`, the Potency [1] was “inactive”.
For `CN(C)CCOCCN(C)CCO`, the Potency [1] was “inactive”.
With `OCc1cc(C(O)CNCCCCCCOCCCCc2ccccc2)ccc1O` (stereo unspecified) the Potency [12] was “inactive”.
In the case of `C=CCOC(=O)CCC1CCCCC1`, the Potency [1] is reported as “inactive”.
For `COc1ccccc1NC(=O)CC(C)=O`, the Potency [1] was inconclusive: 27.3 µM [cytotoxic, single point], the Potency [2] was inconclusive: 60.3 µM [activator] and the Potency [5] was “inactive”. For the same compound, the Potency [6] was inconclusive: 39.4 µM [inhibitor, partial curve].
With `NCCCCCC(=O)O` the Potency [12] was “inactive”, the Potency [13] was “inactive” and the Potency [8] was “inactive”.
In the case of `O=C(O)CCCC(=O)O`, the Potency [7] is reported as “inactive”, the Potency [4] is reported as active: 34.9 µM and inactive and the Potency [6] is reported as inconclusive: 22 µM [inhibitor, full curve, poor fit].
For `C=Cc1ccc(O)c(OC)c1`, the Potency [1] was “inactive”, the Potency [2] was inconclusive: 68.6 µM [activator, single point] and the Potency [8] was inconclusive: 31.7 µM [inhibitor, full curve]. For the same compound, the Potency [6] was active: 20 µM.
With `Cc1ccc(C)c(OCCCC(C)(C)C(=O)O)c1` the Potency [1] was “inactive”, the Potency [2] was inconclusive: 69.1 µM [activator, single point] and the Potency [8] was inconclusive: 19.5 µM [inhibitor, single point]. For the same compound, the Potency [4] was inconclusive: 56.8 µM [inhibitor, partial curve] and active: 71 µM and inactive and the Potency [6] was “inactive”.
In the case of `CC1=CCC2CC1C2(C)C` (stereo unspecified), the Potency [1] is reported as “inactive”.
With `C[C@]12C(=O)OC(=O)[C@H]1[C@H]1C=C[C@@H]2C1` the Potency [7] was “inactive” and the Potency [4] was inconclusive: 80.4 µM [inhibitor, partial curve, poor fit].
In the case of `CC(=O)c1ccc2c(c1)N(CCCN1CCC(CCO)CC1)c1ccccc1S2`, the Potency [1] is reported as inconclusive: 26.6 µM [cytotoxic, partial curve], the Potency [2] is reported as inconclusive: 11.9 µM [activator, partial curve, poor fit] and the Potency [5] is reported as active: 3.01 µM.
